Results as given in PubChem BioAssay (NCI).
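The compound was tested at five concentrations on cells cultured in 96-well plates, with a 48-hour exposure period. GI50 = concentration required for 50% inhibition of growth. TGI denotes the concentration required for complete inhibition of growth.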

Test system: NCI-H322M lung
Test: NCI-60 cell line screen, 48 h

SMILES: Cc1ccc(NC(=O)[C@]23CCC(C)(C)CC2C2=CCC4[C@@]5(C)C[C@@H](O)[C@H](O)[C@@](C)(CO)C5CC[C@@]4(C)[C@]2(C)CC3)cc1 (stereo partly drawn)
- GI50: 14.2 µM
- TGI: 31.1 µM

SMILES: COc1ccc(C(=O)Nc2sc3c(c2C#N)CCC(=O)C3)cc1C(F)(F)F
- GI50: 5.11 µM
- TGI: > 100 µM

SMILES: O=C(O)c1ccc(-c2ccc(/C=N/NC(=O)c3[nH]c4ccc(Br)cc4c3-c3ccccc3)o2)cc1
- GI50: 28.7 µM
- TGI: > 100 µM

SMILES: O=C1NC(=NC2CCCCCC2)N/C1=C\c1ccc2ncoc2c1
- GI50: 2.65 µM
- TGI: 41.9 µM
